Measurements as given in PubChem BioAssay (Tox21).
Several values for one entry are separate records, joined by “and”; a condition that tells them apart may be missing. Equal entries are not always repeated. The shares of active, inactive and inconclusive entries below differ from those in the screen. A potency beside an inconclusive call is a rough fit, not a confirmed value. Activity calls are given as the source filed them. The call rests on the fitted dose curve; in most records, active means well fitted inhibition curve with a large enough effect in the signal ratio in the repeat runs (not every such curve was filed as active); inconclusive means weak or mixed curves, or effect the other way; inactive means no such curve, though single readings can be large or run the other way; the % refers to the signal ratio.

molecular target: Peroxisome proliferator-activated receptor delta (Homo sapiens) (UniProt Q03181); assay: qHTS assay to identify small molecule antagonists of the peroxisome proliferator-activated receptor delta (PPARd) signaling pathway (AID 743215); conditions: HEK293H PPARd-UAS-bla, beta-lactamase FRET ratio, antagonist, 17 h; at 62 µM (top of the series);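 further: cells stimulated with agonist L165041 at 300 nM final during compound exposure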
Description: U.S. Tox21 Program National Center for Advancing Translational Sciences [NCATS] NIH Chemical Genomics Center [NCGC] U.S. Environmental Protection Agency [EPA] National Institutes of Environmental Health Sciences [NIEHS] National Toxicology Program [NTP] U.S. Food and Drug Administration [FDA] Tox21 Assay Overview: The peroxisome proliferator-activated receptors (PPARs) are lipid-activated transcription factors of the nuclear receptor superfamily with three distinct subtypes namely PPAR alpha, PPAR delta (PPARd) and PPAR gamma. All these subtypes heterodimerizes with Retinoid X receptor (RXR) and have different physiological functions. […] To identify the compounds that inhibit PPAR-delta signaling, GeneBLAzer PPAR delta UAS-bla HEK293H cell line (Invitrogen, Carlsbad, CA, USA) containing a beta-lactamase reporter gene under the control of an Upstream Activator Sequence (UAS) was used to screen the Tox21 compound library.
Tox21 Assay Protocol Summary: PPARd-bla cells were dispensed at 3000 cells/5uL/well in 1536-well black wall/clear bottom plates using a Multidrop Combi (Thermo Fisher Scientific, Waltham, MA) dispenser. After the assay plates were incubated at 37 C and 5% CO2 for 5 h, 23 nL of compounds dissolved in DMSO, positive controls or DMSO only was transferred to the assay plate by a Pintool station (Kalypsys, San Diego, CA), followed by addition of 1ul L165041 (300 nM, final concentration in the wells). The assay plates were incubated at 37 C for 17 h, and then 1 uL of LiveBLAzerTM B/G FRET substrate was added using a Bioraptr Flying Reagent Dispenser (FRD) workstation (Beckman Coulter, Indianapolis, IN, USA). The assay plates were incubated at room temperature for 2 h and fluorescence intensity was measured by an Envision plate reader (PerkinElmer, Shelton, CT).
On the % scale 0 is the no-effect control and ±100 the full control effect; potency means the concentration at half of the fitted maximal effect; tags describe the fitted curve by direction and shape or compound fluorescence and quenching.

Sequence of UniProt Q03181 (Q03181 whole entry, looked up): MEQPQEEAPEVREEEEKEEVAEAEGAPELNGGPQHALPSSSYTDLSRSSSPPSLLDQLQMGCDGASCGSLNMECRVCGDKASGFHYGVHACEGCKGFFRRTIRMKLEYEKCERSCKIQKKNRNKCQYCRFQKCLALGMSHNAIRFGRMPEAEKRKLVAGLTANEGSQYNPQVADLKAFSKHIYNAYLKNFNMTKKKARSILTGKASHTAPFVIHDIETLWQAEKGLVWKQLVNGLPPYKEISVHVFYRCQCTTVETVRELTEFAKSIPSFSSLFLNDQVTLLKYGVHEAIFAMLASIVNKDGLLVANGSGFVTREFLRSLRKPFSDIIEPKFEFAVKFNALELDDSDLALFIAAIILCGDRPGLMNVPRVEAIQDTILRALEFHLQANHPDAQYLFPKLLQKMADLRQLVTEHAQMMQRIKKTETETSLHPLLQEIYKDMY

**Q.** `CC(C)(C#N)N=NC(C)(C)C#N` was tested. Which ratio activity, negative = inhibition did it give?
**A.** Its ratio activity, negative = inhibition is inactive: -11.6%.

**Q.** With `C=C(C)C(=O)OCC1CO1` (stereo unspecified) as the compound, how does the ratio activity, negative = inhibition read?
**A.** The ratio activity, negative = inhibition was inactive: 3.79%.

same assay, conditions: HEK293H PPARd-UAS-bla, beta-lactamase FRET ratio, antagonist, 17 h; ratio activity, negative = inhibition: at 62 µM (top of the series) unless noted

**Q.** With `O=C(CCl)Nc1ccccc1` as the compound, how does the Potency read?
**A.** The Potency was active: 17.4 µM.

**Q.** How did the Potency turn out when `O=[N+]([O-])c1ccc(Cl)c(Cl)c1` was run?
**A.** The Potency was “inactive”.

**Q.** Which Potency does the source give for `Clc1cccc(SC2CCNCC2)n1` here?
**A.** The Potency was “inactive”.

**Q.** For `Cc1nn(-c2cc(NS(C)(=O)=O)c(Cl)cc2Cl)c(=O)n1C(F)F`, which Potency is on record?
**A.** The Potency was inconclusive: 2.45 µM [activator, full curve, poor fit].

**Q.** For `O=Cc1cccc(Oc2ccccc2)c1`, which ratio activity, negative = inhibition is on record?
**A.** Its ratio activity, negative = inhibition is inconclusive: -1.04% [at 80.4 µM].

**Q.** Which Potency does the source give for `IC(I)=C(I)I` here?
**A.** The Potency was active: 15.5 µM.

**Q.** How did the Potency turn out when `C[C@H]1CNCCc2ccc(Cl)cc21` was run?
**A.** Its Potency is “inactive”.

**Q.** `CC(O)CCO` (stereo unspecified) was tested. Which ratio activity, negative = inhibition did it give?
**A.** Its ratio activity, negative = inhibition is inconclusive: -22.5%.

**Q.** How did the ratio activity, negative = inhibition turn out when `CC(C)(C#N)N=NC(C)(C)C#N` was run?
**A.** The ratio activity, negative = inhibition was inconclusive: -1.09%.

**Q.** `CCCCCCCCCl` was tested. Which Potency did it give?
**A.** Its Potency is inconclusive: 0.871 µM [falling, single point].

**Q.** With `CC(C)(C)C(=O)C(Oc1ccc(Cl)cc1)n1cncn1` (stereo unspecified) as the compound, how does the Potency read?
**A.** The Potency was “inactive”.

**Q.** For `N#Cc1nn(-c2c(Cl)cc(C(F)(F)F)cc2Cl)c(N)c1S(=O)C(F)(F)F` (stereo unspecified), which ratio activity, negative = inhibition is on record?
**A.** The ratio activity, negative = inhibition was inconclusive: -48.1%.

**Q.** What about the Potency of the same compound?
**A.** Its Potency is inconclusive: 22 µM [inhibitor, full curve].

**Q.** For `COC(=O)Nc1nc2ccccc2[nH]1`, which ratio activity, negative = inhibition is on record?
**A.** Its ratio activity, negative = inhibition is inconclusive: 1.86%.

**Q.** With `Oc1ccccc1Cl` as the compound, how does the ratio activity, negative = inhibition read?
**A.** The ratio activity, negative = inhibition was inconclusive: 22.9%.

**Q.** How did the Potency turn out when `CCC1(c2ccccc2)C(=O)N=C(O)NC1=O` (stereo unspecified) was run?
**A.** The Potency was “inactive”.

**Q.** How did the ratio activity, negative = inhibition turn out when `C[C@@H](N)[C@@H](O)c1ccccc1` was run?
**A.** The ratio activity, negative = inhibition was inconclusive: -1.05%.

**Q.** For `Cc1cccc(N=Nc2ccc(N(C)C)cc2)c1`, which ratio activity, negative = inhibition is on record?
**A.** Its ratio activity, negative = inhibition is inconclusive: -0.693% [at 80.4 µM].

**Q.** Which Potency does the source give for `CCNc1nc(NC(C)(C)C)nc(SC)n1` here?
**A.** Its Potency is “inactive and inconclusive: 61.6 µM [inhibitor, single point]”.

**Q.** For `C=CCC1([C@H](C)CCC)C(=O)NC(=O)NC1=O`, which Potency is on record?
**A.** The Potency was “inactive”.

**Q.** With `C=C(C)C(=O)OCC1CO1` (stereo unspecified) as the compound, how does the ratio activity, negative = inhibition read?
**A.** Its ratio activity, negative = inhibition is inconclusive: -18.2%.

**Q.** How did the ratio activity, negative = inhibition turn out when `Fc1ccc(Oc2ccnc3cc(Cl)cc(Cl)c23)cc1` was run?
**A.** The ratio activity, negative = inhibition was inconclusive: -56.5%.

**Q.** With `O=C(N[C@H](c1ccccc1)[C@@H]1CN2CCC1CC2)c1c(Cl)ccc(C(F)(F)F)c1Cl` as the compound, how does the ratio activity, negative = inhibition read?
**A.** The ratio activity, negative = inhibition was inconclusive: -31.8% [at 80.4 µM].

**Q.** How did the Potency turn out when `O=C1CCCCC1Cl` (stereo unspecified) was run?
**A.** The Potency was “inactive”.

**Q.** How did the Potency turn out when `Oc1c(Br)c(Br)c(Br)c(Br)c1Br` was run?
**A.** Its Potency is inconclusive: 6.96 µM [rising, partial curve, poor fit].

**Q.** For `CCCCCCCCCCCCCC[P+](CCCCCC)(CCCCCC)CCCCCC` (tested in a mixture with another compound), which Potency is on record?
**A.** The Potency was inconclusive: 11 µM [cytotoxic, full curve].

**Q.** `COP(=S)(OC)Oc1cc(Cl)c(Br)cc1Cl` was tested. Which Potency did it give?
**A.** The Potency was inconclusive: 54.9 µM [fluorescent, partial curve, poor fit].

**Q.** For `CCOP(=S)(NC(C)C)Oc1ccccc1C(=O)OC(C)C` (stereo unspecified), which Potency is on record?
**A.** Its Potency is inconclusive: 43.6 µM [rising, partial curve, poor fit].

**Q.** Which Potency does the source give for `CC(=O)[C@H]1CC[C@H]2[C@@H]3CC[C@H]4C[C@](C)(O)CC[C@]4(C)[C@H]3CC[C@]12C` here?
**A.** Its Potency is “inactive”.

**Q.** Which ratio activity, negative = inhibition does the source give for `CCCN(CCCl)c1c([N+](=O)[O-])cc(C(F)(F)F)cc1[N+](=O)[O-]` here?
**A.** The ratio activity, negative = inhibition was inconclusive: -22.3%.

**Q.** Which ratio activity, negative = inhibition does the source give for `CN(C)C1CSSSC1` here?
**A.** The ratio activity, negative = inhibition was inconclusive: 10.3%.

**Q.** Which ratio activity, negative = inhibition does the source give for `Nc1ccc(-c2ccccc2)cc1` here?
**A.** The ratio activity, negative = inhibition was inconclusive: -11.8%.

**Q.** With `COC(C)(C)C` as the compound, how does the ratio activity, negative = inhibition read?
**A.** The ratio activity, negative = inhibition was inconclusive: -5.22%.

**Q.** How did the Potency turn out when `CCOC(=O)CCN(SN(C)C(=O)Oc1cccc2c1OC(C)(C)C2)C(C)C` was run?
**A.** Its Potency is inconclusive: 61.6 µM [fluorescent, single point].

**Q.** Which Potency does the source give for `O.O.O.O=C([O-])[C@H]([O-])[C@@H]([O-])C(=O)[O-].O=C([O-])[C@H]([O-])[C@@H]([O-])C(=O)[O-].[K+].[K+].[Sb+3].[Sb+3]` here?
**A.** The Potency was active: 12.4 µM.

**Q.** With `Clc1cc(C(Cl)(Cl)Cl)cnc1Cl` as the compound, how does the Potency read?
**A.** The Potency was “inactive”.

**Q.** How did the ratio activity, negative = inhibition turn out when `OCC1CO1` (stereo unspecified) was run?
**A.** Its ratio activity, negative = inhibition is inconclusive: 11.7%.

**Q.** What does the source list for `C[C@]12C/C(=C/O)C(=O)C[C@@H]1CC[C@@H]1[C@@H]2CC[C@@]2(C)[C@H]1CC[C@]2(C)O`?
**A.** ratio activity, negative = inhibition: inconclusive: 2.04%; Potency: inconclusive: 55.5 µM [fluorescent]
